Out of some 48,000 compounds screened, about 450 (0.94%) were called active. Inconclusive results (about 19%) are left out. Calls come from the whole dose curve; as a rule, active = well fitted inhibition curve with a large enough effect; inconclusive = small, poorly fitted or top-dose-only effect; inactive = no such curve, though single readings can be large or run the other way. This is one part of the list.
test: Primary qHTS for Identification of Small Molecule Inhibitors of Huntingtin Promoter Activity; settings: HEK293 HTT promoter firefly luciferase reporter (activity 0% = vehicle and -100% = no light), 24 h; series mostly up to 57.5 µM; activity change, negative = inhibition: at the top concentration; note: nearly all actives have a fitted effect of over 50% in size
Method in brief: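 Firefly luciferase signal from promoter-reporter HEK293 cells was scaled between vehicle (0%) and zero RLU (-100%). Compounds were tested at final concentrations of up to 57.5 uM over 24 h at 37 degrees C. PTC124 at 50 uM final served as control inhibitor.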

Activity change, negative = inhibition, inactive:
CCN(CC)c1ccc2nc3c(=O)n(C)c(=O)n(C)c3nc2c1 21.2%
COc1cc(C=CC(=O)O)ccc1O -4.46%
CCn1nc(C)c(CCN(C)C(=O)Nc2cc(Cl)c(OC)cc2OC)c1C 5.3%
CC(C)c1nn2c(=O)cc(COC(=O)c3cccc(NC(=O)CCc4ccccc4)c3)nc2s1 33.4%
CCN(Cc1ccccc1)C(=O)Cn1c(=O)cc(C)c2c(C)nn(-c3cccc(F)c3)c21 -26.1%
CCOc1ccc(-c2nnc(SCC(=O)NC3CCCCC3)nc2-c2ccc(OCC)c(OC)c2)cc1OC -9.94%
COc1ccc(CNC(=O)CCn2c(=O)c3cccn3c3ccc(F)cc32)cc1OC -3.18%
CCN1C(=O)c2ccccc2S(=O)(=O)c2ccc(C(=O)NCc3ccc(C)cc3)cc21 -13.1%
CCc1ccc2occ(CC(=O)Nc3nnc(SC)s3)c2c1 -15%
CCS(=O)(=O)c1nc(S(=O)(=O)c2ccc(Cl)cc2)c(NCc2ccc(Cl)cc2)s1 -25.2%
COc1ccc(-c2ccc(=O)n(CC(=O)Nc3ccc(Br)cc3F)n2)cc1 7.26%
Cn1c(=O)c2c(-c3ccccc3)n(-c3cccc(C#N)c3)cc2n(C)c1=O -10.5%
O=C(O)c1ccc(Nc2ncnc3scc(-c4ccccc4)c23)cc1 -15.9%
CCC(C(=O)NCc1ccccc1Cl)n1c(=O)c2cccn2c2ccccc21 (stereo not drawn) -12.8%
Cc1cc2c(OCC(CNC(C)(C)C)OC(=O)c3ccccc3)cccc2[nH]1 (stereo not drawn) -7.79%
COC(=O)c1cc(OC)c(OC)cc1NC(=O)c1ccc2c(c1)CCN2S(C)(=O)=O -11.1%
O=C(NCc1ccccc1)c1c2c(nc3ccccc13)C(=O)N(C1CCCCC1)C2 -13.2%
O=C(Nc1cccc(-c2nc3ccccc3o2)c1)c1cccc(Br)c1 -18.9%
CCOC(=O)c1c(Nc2cc(C)cc(C)c2)nnc(-c2ccccc2)c1-c1ccccc1 -27.3%
O=C(NCC(c1cccnc1)N1CCc2ccccc2C1)C(=O)Nc1ccccc1 (stereo not drawn) -14.1%
COc1ccccc1N1CCN(S(=O)(=O)c2c(C)nc3sc(C)c(C)n3c2=O)CC1 -11%
CC(=O)CC(c1ccc([N+](=O)[O-])cc1)c1c(O)c2ccccc2oc1=O (stereo not drawn) -5.17%
Cn1nc(-c2ccc(C(=O)Nc3cccc(C(F)(F)F)c3)cc2)c2ccccc2c1=O -0.256%
CCCCCCCCNC(C)C(O)c1ccc(SC(C)C)cc1 (stereo not drawn) 1.9%
O=C(Nc1ccc(F)cc1F)c1cnn(-c2ccc(F)cc2)c1-n1cccc1 -30.5%
CCOc1ccccc1NC(=O)CN1c2ccccc2S(=O)(=O)c2ccccc21 -16.8%
Cc1ccc(CNC(=O)c2cc(S(=O)(=O)N3CCCCCC3)cn2C)cc1 -21.2%
COc1ccc(CNS(=O)(=O)c2cnc(N)nc2)cc1 -4.61%
Cc1cccc(CNC(=O)c2ccc3c(c2)N(C)C(=O)C2CCCCN32)c1 (stereo not drawn) -1.55%
Cc1nn(C)c(C)c1S(=O)(=O)N(CC(=O)N1CCN(c2ccccc2)CC1)c1ccc(C(C)C)cc1 1.58%
CCOc1ccccc1NC(=O)C1CCN(S(=O)(=O)c2ccc3[nH]c4c(c3c2)CCCCC4)CC1 -27.5%
O=C(CCn1c(=O)c2cccn2c2ccccc21)Nc1ccc(F)cc1 -9.25%
CCCCCNC(=O)c1ccc2c(c1)nc(C)n2-c1cccc(C)c1 2.46%
Cc1cc(C)n(-c2nnc(Nc3cc(Cl)ccc3C)c3ccccc23)n1 -22.7%
COc1ccccc1NC(=O)c1cc2c([nH]c1=O)CC(C)(C)CC2=O 11.5%
COc1ccc(NC(=O)c2sc3nc4c(cc3c2N)CCCCCC4)cc1OC -30.8%
Fc1ccc(Cc2cn3cc(-c4ccc(Cl)cc4)nc3s2)cc1 19.7%
CCC1CCCCN1CCCNC(=O)c1cc2c(=O)n(CC)c3ccccc3c2s1 (stereo not drawn) -1.05%
COc1ccc(CNC(=O)C2CCN(S(=O)(=O)c3ccc(C)cc3)CC2)cc1 -21.7%
CCN1CCN(C(c2ccccc2)c2c(O)cc(C)n(Cc3ccco3)c2=O)CC1 (stereo not drawn) -12.3%
N#C/C(=C/c1ccc(Cl)cc1Cl)c1nc2ccccc2c(=O)[nH]1 -9.08%
COC(=O)c1c(N)n(-c2ccc(OC)c(Cl)c2)c2nc3ccccc3nc12 -2.75%
COc1ccc(-c2nnc3c4ccccc4c(-c4ccccc4)nn23)cc1 -4.27%
O=C(Nc1ccccc1F)c1ccc(-c2ccccc2)s1 14.9%
CCN(CC)C(=O)c1sc2c(c1C)c(=O)n(-c1ccc(Cl)c(Cl)c1)c(=O)n2CC(=O)Nc1cccc(OC)c1 0%
O=C(Nc1ccc(F)cc1Cl)C1Cc2ccccc2N1C(=O)c1ccccc1 (stereo not drawn) -2.75%
O=C(CCn1nc(-c2ccc(Cl)cc2)c2ccccc2c1=O)Nc1ccc(OC(F)(F)F)cc1 -16.7%
CC(=O)c1cccc(NC(=O)c2nc3ccccc3nc2N2CCCCC2)c1 -21.4%
COc1ccc(OC)c(CNC(=O)C2CCN(c3ncnc4c3nc3n4CCCCC3)CC2)c1 -3.95%
CN1C(=O)C2(c3ccccc31)N(c1ccc(F)c(Cl)c1)C(=O)CS2(=O)=O (stereo not drawn) -9.49%
COC(=O)c1cc(S(=O)(=O)NCC2CCN(Cc3ccccc3F)CC2)c[nH]1 -20.2%
Cc1cc(C)c2c(n1)nn1c(C)c(CCC(=O)NCc3ccc(Cl)cc3)c(C)nc21 4.8%
O=C(Nc1cc(F)ccc1F)c1cc2nc(-c3ccco3)cc(C(F)(F)Cl)n2n1 -2.08%
CCC(=O)N1CCc2cc(S(=O)(=O)CCC(=O)N3CCN(c4ccc(C(C)=O)cc4)CC3)ccc21 -20.3%
CCOc1ccc(-c2cn3c(n2)sc2cc(C(=O)NCCc4ccc(OC)c(OC)c4)ccc23)cc1 -1.87%
Cc1ccc(C2=NN(CC(=O)NCCc3ccc(Cl)cc3)C(=O)CC2)cc1 -19%
COc1ccc(CCNC(=O)CCn2c(=O)c3cccn3c3cccnc32)c(OC)c1OC -3.7%
Cc1cccc(NC(=O)N2CCC(n3c(C)nc4cccnc43)CC2)c1 16%
O=C(CSc1nccn1Cc1ccccc1)Nc1ccc2c(c1)OCO2 2.91%
CCOc1cc(C(=O)NCCc2csc(-c3ccc(C)cc3)n2)cc(OCC)c1OCC -13.5%
CN(C(=O)c1cc2c(=O)n3ccccc3nc2n1C)c1ccccc1 83.4%
CC(=O)Nc1nnc(SCc2cc(=O)c3cccc(Cl)c3[nH]2)s1 -6.57%
CCOc1ccc(CCNC(=O)Cn2nnc(-c3ccc(C(F)(F)F)cc3)n2)cc1OCC -0.523%
